Measurements taken from PubChem BioAssay (NCI).
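Step 1: Grow cells in 96-well plates. Step 2: Expose to compound for 48 hours at 5 concentrations. Step 3: Interpolate endpoints linearly; if unreached, use highest concentration. GI50 marks 50% less growth. TGI denotes the concentration required for complete inhibition of growth.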

test system: NCI-H322M lung; experiment: inhibition of tumour cell growth, NCI panel, 48 h

| Compound | TGI | GI50 |
| --- | --- | --- |
| CC12Oc3ccc4ccccc4c3C1c1c(ccc3ccccc13)O2 (configuration not stated) | > 100 µM | – |
| CCN(CC)CC(O)CNc1ccc(NCC(O)CCl)c2c1C(=O)c1ccccc1C2=O (configuration not stated) | 20.9 µM | – |
| O=C(/C=C/c1ccccc1O)c1ccccc1 | 24.7 µM | 11.5 µM |
| O=[N+]([O-])c1ccc(Oc2cccnc2)c([N+](=O)[O-])c1 | 55 µM | 18.2 µM |
| O=S1(=O)COc2ccccc2-c2ncncc21 | > 100 µM | – |
| CCOc1cc(NC(C)=O)ccc1C(=O)N/N=C/c1ccco1 | > 100 µM | – |
| Cc1cc(C)nc(NC(=S)Nc2cccc(Cl)c2)c1 | > 100 µM | – |
| CC(C)(C)c1ccc(O)c(Br)c1 | > 100 µM | – |
| OCC1C(O)C(O)[C@@H]2SCCN12 (some centres not stated) | > 100 µM | – |
| Cc1nc(NC(=O)COc2cccc(/C=C3\COc4ccccc4C3=O)c2)sc1C | 12.3 µM | 4.42 µM |
| C/C(=C\CNc1ncnc2nc(Cl)[nH]c12)CO | > 100 µM | – |
| C#CCn1c(=O)c(C)cn(/C(=C/C(=O)OCC)C(=O)OCC)c1=O | 42.2 µM | – |
| Cn1ccnc1SC(F)(F)c1nc2ccccc2o1 | > 100 µM | – |
| NS(=O)(=O)c1cc(S(N)(=O)=O)c(NC(=O)Nc2ccc(Cl)c(Cl)c2)c(Cl)c1Cl | > 100 µM | – |
| N#Cc1cc2c(n(C3OC(CO)C(O)C(O)C3O)c1=S)CCCCC2 (configuration not stated) | > 100 µM | – |
| O=C(N/N=C\c1ccc([N+](=O)[O-])cc1)Nc1ccccc1 | > 100 µM | – |
| CC(C)(C)OC(=O)N1C[C@H](CC(=O)OCc2ccccc2)C[C@H]1C(=O)OCC(Cl)(Cl)Cl | > 50 µM | – |
| CCCCCCCCCCCCCCCCCC(=O)[O][Sn]([CH2]CCC)([CH2]CCC)[CH2]CCC | 0.367 µM | 0.18 µM |
| COc1cc(S(=O)(=O)N/N=C/C=C/c2ccccc2)c(OC)cc1NC(C)=O | > 100 µM | – |

| Compound | TGI | GI50 |
| --- | --- | --- |
| O=[n+]1cnn([O-])c2ccccc21 | > 100 µM | – |
| COc1ccc(S(=O)(=O)Nc2cc(/C=C\c3cc(OC)c(OC)c(OC)c3)cc(OC)c2OC)cc1OC | > 100 µM | 4.71 µM |
| COc1cccc(/C=N/[N-]C(N)=O)c1[O-].[Cu+2].[OH3+].c1cnc2c(c1)ccc1cccnc12 | 35.4 µM | – |
| CCC(C#N)N(Cc1ccc(CN(C(=O)c2ccccc2)C(C#N)CC)cc1)C(=O)c1ccccc1 (configuration not stated) | > 100 µM | – |
| Nc1ccccc1C#Cc1ccccc1C#Cc1ccccc1N | 33 µM | 11.4 µM |
| O=C(c1ccsc1)c1cc2c(s1)C(=O)c1ccsc1C2=O | 0.979 µM | – |
| COC(=O)C1C(=O)O[C@@H](c2ccc(OC)cc2)C1C(=O)OC (some centres not stated) | > 100 µM | – |
| Nc1ccccc1S(=O)c1ccccc1 (configuration not stated) | > 100 µM | – |
| Brc1ccc(-c2ccc(-c3ccc(-c4ccc(Br)s4)s3)s2)s1 | > 100 µM | – |
| COc1ccc(Cc2nc3cc(Cl)ccc3o2)cc1 | > 100 µM | – |
| O=C(O)c1ccc([N+](=O)[O-])c(P(=O)(O)O)c1 | > 100 µM | – |
| Nc1ccc(S(=O)(=O)Nc2nc3ccccc3nc2Nc2ccc(S(N)(=O)=O)cc2)cc1 | > 100 µM | – |
| CCOC(=O)c1ccc(-c2cccs2)n1C | > 100 µM | – |
| Oc1c(Cl)ccc2cccnc12 | > 100 µM | – |
| Cc1c(NC(=O)CCCl)c(=O)oc2c(C)c3occc(=O)c3cc12 | > 100 µM | – |
| NC(=S)SC1=NNC2(C(=O)N1)c1ccccc1-c1ccccc12 | > 10 µM | – |
| CSc1nc(C)cc(N(C)c2ccccc2)n1 | > 100 µM | – |
| O=C1CCCCC1C1(O)C(=O)Nc2cc(F)ccc21 (configuration not stated) | > 100 µM | – |
| CSc1c(C#N)c(O)n(-c2ccc(Cl)cc2)c(=O)c1C#N | > 100 µM | – |

| Compound | TGI | GI50 |
| --- | --- | --- |
| O=P(O)(O)OP(=O)(O)O | > 100 µM | – |
| O=C(O[C@H]1CN[C@H](C#Cc2cc3ncnc(Nc4ccc(Cc5ccccc5)cc4)c3s2)C1)N1CCOCC1 | > 25 µM | 3.85 µM |
| O=C(COC(c1ccc(F)cc1)c1ccc(F)cc1)N1CCN(CCCc2ccccc2)CC1 | 15.6 µM | – |
| NC(=O)ON=C1CCN(Cc2ccccc2)CC1 | > 100 µM | – |
| Nc1ccc(-c2nc3cc(F)ccc3s2)cc1Br | > 100 µM | – |
| CC1=C(C(=O)OCCc2ccc([N+](=O)[O-])cc2)C(c2ccccc2C(F)(F)F)C(C(=O)OC(C)C)=C(C)N1 (configuration not stated) | > 100 µM | – |
| CCOc1ccc(/C=N/Nc2cc(C)nc3ccc(Cl)cc23)cc1 | 3.3 µM | 1.83 µM |
| c1ccc2c(c1)nnn1c3cnccc3nc21 | 81.6 µM | – |
| O=C(c1ccc(F)c(F)c1Nc1ccc(I)cc1F)N1CC(O)([C@H]2CCCCN2)C1 | 14.1 µM | 0.764 µM |
| COC(=O)C1C2CC3C(OC(=O)C31)C2I (configuration not stated) | > 100 µM | – |
| CCCCN(CCCC)c1cc(C(=O)CCCCCN)c2ccccc2n1 | 6.47 µM | 2.55 µM |
| COC(=O)C(CCC1(C)OCCO1)C(C)=O (configuration not stated) | > 100 µM | – |
| Cn1c(=O)c2c(ncn2CCCCn2ccnc2[N+](=O)[O-])n(C)c1=O | > 100 µM | – |
| CCOC(=O)c1c(NS(=O)(=O)c2ccc(Br)cc2)sc2c1CCCC2 | 30.2 µM | – |
| CC(/C=C/C=C/C=C/C=C/C=C/C(O)=C1/C(=O)C(CCC(=O)O)N(C)C1=O)=C\C(C)C(OC1CC(O)C(O)C(C)O1)C(C)C (configuration not stated) | 6.24 µM | – |
| COc1cccc2c3cccc(OC)c3c3[nH]cnc3c12 | 10.2 µM | – |
| O=S1c2ccccc2N=C(c2ccc3ccccc3c2)CC1c1ccccc1 (configuration not stated) | > 100 µM | – |
| COc1cc(C2=Nc3c/c(=C\c4c(O)[nH]c5ccc(Cl)cc45)ccc3=N2)cc(OC)c1OC | 26 µM | 5.4 µM |
